Data from the supplement of paper PMC10338343.
± gives the standard deviation. The list shows a part of the results, in another mix than the full data.

tested on: MIWI (PIWIL1) piRISC loaded with piRNA #1 (30 nt); test: pre-steady-state target cleavage rate (min^-1); MIWI and MILI are mouse PIWI proteins and EfPiwi is from a freshwater sponge; tags in brackets are library labels; higher = faster piRNA-guided slicing of the target; conditions: guide: piRNA #1 5'p-UGAGGUAGUAGGUUGUAUAGUAUCCAGAGG; auxiliary factor: 500 nM mouse GTSF1
Outline: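 Cleave-'n-Seq reactions paired 0.1 nM transcribed, DNA-blocked target RNA library with 1 nM active affinity-purified piRISC holding one synthetic guide, plus or minus 500 nM GTSF1 partner protein, in HEPES–potassium acetate buffer at 33 °C for 0–8 or 0–960 min. After sequencing of uncleaved targets and normalisation to depth and weakly complementary targets, the pre-steady-state cleavage rate was taken from a burst-and-steady-state fit. Three trials were pooled, and k3 was capped at 0.0001 min^-1.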

Row | Sequence | pre-steady-state target cleavage rate
1 | GGAGAGGAUACUAUACUUCCUACUACCUCA | 0.217 ± 0.026
2 | CCUGAGGAUACUAUACAACCUACUACCUCA | 0.242 ± 0.045
3 | GGAGACGAAUCUAUACAACCUACUACCUCA | 1 ± 0.075
4 | GCUCUGGAUACUAUACAACCGACUACCUCA | 0.0121 ± 0.0027
5 | GCUCUGGAUUCUAUACAACCUACUACGUCA | 0.706 ± 0.068
6 | GCUCUGGAUAGUAAACAACCUACUACCUCA | 0.764 ± 0.038
7 | CCUCUGGUUACUAUACAACCUACUUCCUCA | 0.536 ± 0.035
8 | GGAGACGAUACUAUACAAGCUACUAGCUCA | 0.343 ± 0.053
9 | CCUCUGGAUUCUAUACAACCUACUUCCUCA | 0.421 ± 0.032
10 | GGUCUGGAAUCUAUACAACCUACUACCUCA | 1.57 ± 0.1
11 | GGACUGGAUACUAUACAACGUACAACCUCA | 0.443 ± 0.053
12 | GGAGACCUAUGUAUACAACCUACUACGUGA | 0.0375 ± 0.0082
13 | GCACUGGAUACUAUACAUCCUACUACCUCA | 1.88 ± 0.096
14 | GGUCUGGAUACUUUACAACCUACUACCUGA | 0.356 ± 0.071
15 | CCUCUGGAUACUAUACAACCUACGUACCUCA | 0.422 ± 0.055
16 | GCUCUGGUUACUAUACAACCUACUACCUGA | 0.96 ± 0.11
17 | GGUCUGGAUAGAAUACAACCUACUACCUCA | 1.39 ± 0.097
18 | CCUCUGGAUACUAUACAACCUACUACCUUA | 1.81 ± 0.11
19 | GGAGACGAUAGUAUUCAACCUACUACCUCA | 0.619 ± 0.069
20 | GGAGUGGAUACUAUACUACCUACUACGUCA | 0.323 ± 0.027

Row | Sequence | pre-steady-state target cleavage rate
21 | GCUCUGGAUACUAUACAUCCUACUAGCUCA | 0.48 ± 0.045
22 | GGAGACGAUACUAUGCAACCUACUACCUCA | 1.68 ± 0.096
23 | GGUCUGGAUACUAUACAACCUACGUACCUCA | 0.831 ± 0.085
24 | CCUCUGGAUAGUAUACAACCAACUACCUCA | 0.075 ± 0.0096
25 | GGAGACCUAUGAUAUGUACCUACUACCUGCA | < 0.0001
26 | GGAGACCUAUGUAUACAACCUACUUACCUCA | 0.107 ± 0.015
27 | GGAGUGGAUACUAUACAACCUAGAACCUCA | 0.0628 ± 0.014
28 | GGAGACCUAUCUAUUCAACCUACUUCCUCA | 0.00896 ± 0.0025
29 | GGAGACCUAUGAUUACUAGCUACUACCUCA | < 0.0001
30 | GGUCUGGAUACUAUACCACCUACUACCUCA | 1.38 ± 0.074
31 | GGAGACCUAUGAUAACUUGCUACUACCUCA | < 0.0001
32 | GGAGACCUAUCUAUACAACCUUGUACCUCA | 0.00593 ± 0.0026
33 | GGAGACCUUUCUAUACUACCUACUACCUCA | 0.0884 ± 0.01
34 | GGAGACCUUACUAUACAACGUACUUCCUCA | 0.144 ± 0.026
35 | GGAGUGGAUACUAUACAAACUACUACCUCA | 0.801 ± 0.034
36 | GGAGACCAUACCAUACAACCUACUACCUCA | 1.14 ± 0.11
37 | GGAGACGAUACUAUACAACCUACUGCCUCA | 0.993 ± 0.07
38 | GGAGACCUUACUAUACAACCAACAACCUCA | 0.00491 ± 0.0019
39 | GGAGUGGAUACAAUACAACCUACUACCUCA | 1.46 ± 0.08
